# The list shows a part of the results. Most values come without repeats; read them as rough.
# System: COLO800
# Assay: cell count relative to DMSO control; melanoma cells; higher = more viable cells
# Conditions: library dose: low library concentration; 72 h
# 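Note: cell number obtained by counting DAPI-stained nuclei in high-throughput microscope images with image analysis software, screen run in 1,536-well plates.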
row,Compound,cell count [%]
1,"CCCCCCCCc1ccc(CCC(N)(CO)CO)cc1 [fingolimod] + CO[C@@H]1[C@H](N(C)C(=O)c2ccccc2)C[C@H]2O[C@]1(C)n1c3ccccc3c3c4c(c5c6ccccc6n2c5c31)C(=O)NC4 [Midostaurin] (first compound 2 µM, partner dose 0.08 µM)",58.9
2,"Cc1ccc(NC(=O)c2cccc(N(C)C)c2)cc1NC(=O)c1ccc(O)cc1 + CN(C)S(=O)(=O)c1ccc2c(c1)/C(=C/c1cc3c([nH]1)CCCC3)C(=O)N2 [SU6656] (first compound 2 µM, partner dose 0.4 µM)",114
3,"NC(=O)c1ccc(N(C(N)=O)c2c(F)cccc2F)nc1-c1ccc(F)cc1F + OCCn1cc(-c2cnc3nnn(Cc4ccc5ncccc5c4)c3n2)cn1 [PF04217903] (first compound 0.4 µM, partner dose 1 µM)",105
4,"CC(C)(C)c1cnc(CSc2cnc(NC(=O)C3CCNCC3)s2)o1 + Cc1cc(N2CCOCC2)cc2[nH]c(-c3c(NC[C@@H](O)c4cccc(Cl)c4)cc[nH]c3=O)nc12 [BMS536924] (first compound 0.01 µM, partner dose 0.2 µM)",66.9
5,"NC(=O)c1ccc(N(C(N)=O)c2c(F)cccc2F)nc1-c1ccc(F)cc1F + NCC(=O)Nc1ccc(-n2nc(C(F)(F)F)cc2-c2ccc3c(ccc4ccccc43)c2)cc1 [OSU03012] (first compound 0.4 µM, partner dose 1 µM)",76.4

# System: COLO829
# Assay: as above
# Conditions: library dose: low library concentration; 72 h
row,Compound,cell count [%]
1,"NC(=O)c1ccc(N(C(N)=O)c2c(F)cccc2F)nc1-c1ccc(F)cc1F + Cn1cncc1[C@@](N)(c1ccc(Cl)cc1)c1ccc2c(c1)c(-c1cccc(Cl)c1)cc(=O)n2C [tipifarnib] (first compound 0.4 µM, partner dose 0.01 µM)",88.8
2,"NC(=O)c1ccc(N(C(N)=O)c2c(F)cccc2F)nc1-c1ccc(F)cc1F + CO[C@@H]1[C@H](N(C)C(=O)c2ccccc2)C[C@H]2O[C@]1(C)n1c3ccccc3c3c4c(c5c6ccccc6n2c5c31)C(=O)NC4 [Midostaurin] (first compound 0.4 µM, partner dose 0.08 µM)",74
3,"NC(=O)c1ccc(N(C(N)=O)c2c(F)cccc2F)nc1-c1ccc(F)cc1F + CN(NC(=O)CC(=O)NN(C)C(=S)c1ccccc1)C(=S)c1ccccc1 [STA4783] (first compound 0.4 µM, partner dose 0.006 µM)",60
4,"Cc1ccc(NC(=O)c2cccc(N(C)C)c2)cc1NC(=O)c1ccc(O)cc1 + O=C(O)c1ccc(-c2c[nH]c3ncc(-c4ccccc4)cc23)cc1C1CCCC1 [GSK650394] (first compound 2 µM, partner dose 0.16 µM)",99.9
5,"NC(=O)c1ccc(N(C(N)=O)c2c(F)cccc2F)nc1-c1ccc(F)cc1F + Cc1cc(N2CCOCC2)cc2[nH]c(-c3c(NC[C@@H](O)c4cccc(Cl)c4)cc[nH]c3=O)nc12 [BMS536924] (first compound 0.4 µM, partner dose 0.2 µM)",100
6,"NC(=O)c1ccc(N(C(N)=O)c2c(F)cccc2F)nc1-c1ccc(F)cc1F + COc1cc(Nc2ncc(F)c(Nc3ccc4c(n3)NC(=O)C(C)(C)O4)n2)cc(OC)c1OC [Tamatinib] (first compound 0.4 µM, partner dose 0.4 µM)",95.6
7,"CCCCCCCCc1ccc(CCC(N)(CO)CO)cc1 [fingolimod] + CN(C)S(=O)(=O)c1ccc2c(c1)/C(=C/c1cc3c([nH]1)CCCC3)C(=O)N2 [SU6656] (first compound 2 µM, partner dose 0.4 µM)",96.5
8,"CCCCCCCCc1ccc(CCC(N)(CO)CO)cc1 [fingolimod] + OCCn1cc(-c2cnc3nnn(Cc4ccc5ncccc5c4)c3n2)cn1 [PF04217903] (first compound 2 µM, partner dose 1 µM)",59.5
9,"NC(=O)c1ccc(N(C(N)=O)c2c(F)cccc2F)nc1-c1ccc(F)cc1F + NC(=O)Nc1cc(-c2cccc(F)c2)sc1C(=O)N[C@H]1CCCNC1 [AZD7762] (first compound 0.4 µM, partner dose 0.02 µM)",99
10,"NC(=O)c1ccc(N(C(N)=O)c2c(F)cccc2F)nc1-c1ccc(F)cc1F + O=C(O)c1ccc(-c2c[nH]c3ncc(-c4ccccc4)cc23)cc1C1CCCC1 [GSK650394] (first compound 0.4 µM, partner dose 0.16 µM)",92.8

# — the supplement of paper PMC4604168 (melanoma cell lines)
